Experimental data taken from PubChem BioAssay AID624417 (National Center for Advancing Translational Sciences (NCATS), 2012).
Screen size: about 410,000 compounds; about 6,400 (1.6%) were called active. Inconclusive means that the source gave no clear call. Such entries were picked first, then a sample of the others. Calls follow the shape of the dose curve; as a rule, active = well fitted inhibition curve with a large enough effect; inconclusive = small, poorly fitted or top-dose-only effect; inactive = no such curve, though single readings can be large or run the other way. No potency is given beside an inconclusive call; the fits are too rough.

Target: Glucagon-like peptide 1 receptor (Homo sapiens) (UniProt P43220)
UniProt P43220, sequence (P43220 whole entry, looked up): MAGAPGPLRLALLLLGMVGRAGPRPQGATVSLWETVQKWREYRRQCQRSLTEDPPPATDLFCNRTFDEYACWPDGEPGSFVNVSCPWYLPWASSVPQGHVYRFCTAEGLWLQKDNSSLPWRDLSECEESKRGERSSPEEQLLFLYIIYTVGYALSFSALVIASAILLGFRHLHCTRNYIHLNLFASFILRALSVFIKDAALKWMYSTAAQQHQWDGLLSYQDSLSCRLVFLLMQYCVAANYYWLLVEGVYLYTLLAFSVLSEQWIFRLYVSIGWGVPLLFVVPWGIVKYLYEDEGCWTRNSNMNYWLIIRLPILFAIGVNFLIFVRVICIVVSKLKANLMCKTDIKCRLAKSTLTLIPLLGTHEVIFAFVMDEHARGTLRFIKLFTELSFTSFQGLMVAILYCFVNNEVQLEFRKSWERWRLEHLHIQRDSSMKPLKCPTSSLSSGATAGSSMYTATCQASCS
Test: qHTS of GLP-1 Receptor Inverse Agonists (Inhibition Mode); also: nearly all actives have a fitted effect of over 55% in size
Settings: HEK293 GLP-1R CRE-luciferase, luminescence, 24 h; Potency: GLP-1R form is constitutively active unless noted; activity change, negative = inhibition: at 38.3 µM (top of the series) unless noted
How it was run: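 Inverse agonists were sought by their lowering of basal cAMP reporter luciferase output in HEK293 cells stably carrying constitutively active human GLP-1R, after 24 h compound treatment.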
% is scaled to controls: 0 for no effect and ±100 for the full control effect; potency is read from the fitted curve at half-maximal effect; tags tell the direction and shape of the fitted curve.

Row | SMILES | Potency | activity change, negative = inhibition
1 | CCOP(=O)(OCC)C(Nc1cccc(C(F)(F)F)c1)c1ccc(C)cc1 (stereo not given) | inconclusive [inhibitor, partial curve, poor fit] | 
2 | CCCCn1nnnc1C(CCSC)N1CCC(n2c(=O)[nH]c3ccccc32)CC1 (stereo not given) | inconclusive [inhibitor, partial curve, poor fit] | 
3 | Cc1ccc(OCCOc2cccc(C=C3C(=O)NC(=O)NC3=O)c2)cc1 | inconclusive [inhibitor, partial curve, poor fit] | 
4 | O=C(Cn1c2c(c(-c3ccccc3Cl)cc1=O)CCC2)N1CCC2(CC1)OCCO2 | inconclusive [inhibitor, single point] | 
5 | CC(=O)OC1CC2(O)C3CCC4CC(O)CCC4(C)C3CCC2(C)C1C1=CC(=O)OC1 (stereo not given) | inconclusive [inhibitor, full curve, poor fit] | 
6 | O=[N+]([O-])c1ccccc1CNCCc1c[nH]c2ccccc12 | inconclusive [inhibitor, single point] | 
7 | O=C(CN1CCN(S(=O)(=O)c2ccc3ccccc3c2)CC1)NC(=O)NC1CCCCC1 | inconclusive [inhibitor, partial curve, poor fit] | 
8 | COc1ccc(CN2CCCC(C(=O)c3ccc(Cl)cc3)C2)c(OC)c1 (stereo not given) | inconclusive [inhibitor, single point] | 
9 | CC(C)CCOP(=O)(c1ccc(N(C)C)cc1)C(O)c1c(Cl)cccc1Cl (stereo not given) | inconclusive [inhibitor, partial curve, poor fit] | 
10 | Cc1[nH]nc2ccc(-c3cncc(OC[C@@H](N)Cc4c[nH]c5ccccc45)c3)cc12 | inconclusive [inhibitor, full curve, poor fit] | 
11 | O=C(COC(=O)Cc1ccccc1)NNC(=O)c1ccc([N+](=O)[O-])cc1 |  | inactive: 0.0447%
12 | CC(C)c1ccccc1NC1=NCCCS1 | inconclusive [inhibitor, partial curve, poor fit] | 
13 | O=c1[nH]c2ccccc2n1C1CCN(C(c2cc3ccccc3o2)c2nnnn2-c2ccc3c(c2)OCCO3)CC1 (stereo not given) | inconclusive [inhibitor, partial curve, poor fit] | 
14 | CN1C(=O)/C(=C/c2cccn2-c2ccc3ccccc3c2)C(=O)NC1=S | inconclusive [inhibitor, partial curve] | 
15 | CCCCc1nc2ccccc2c(=O)n1-c1ccccc1O | inconclusive [inhibitor, partial curve, poor fit] | 
16 | CC(=O)c1cccc(-c2ccnc3c2CC(C(=O)NCCc2ccccc2)O3)c1 (stereo not given) | inconclusive [inhibitor, full curve, poor fit] | 
17 | NS(=O)(=O)c1ccc(-c2ccc(C=C3C(=O)NC(=O)NC3=O)o2)cc1 |  | inactive: 7.51%
18 | CCOC(=O)[C@]12Cc3c(cc(OC)c(OC)c3OC)[C@H]1N(C)C(=O)c1cc(OC)ccc12 | inconclusive [inhibitor, partial curve] | 

Row | SMILES | Potency | activity change, negative = inhibition
19 | CC(=O)c1ccc(OCC(=O)N2CCCC(N3CCN(c4ccccc4C)CC3)C2)cc1 (stereo not given) | inconclusive [inhibitor, partial curve, poor fit] | 
20 | CCOC(=O)N1CCN(C(=O)c2ccc3c(=O)n(CCC4=CCCCC4)c(=S)[nH]c3c2)CC1 | inconclusive [inhibitor, partial curve, poor fit] | 
21 | COC(=O)C1=C(c2ccc(OCc3ccccc3)cc2)C[C@@H]2CC[C@H]1N2C(=O)NCCc1ccc(F)cc1 | inconclusive [inhibitor, partial curve, poor fit] | 
22 | COc1ccc(NP(=O)(Oc2cccc(C)c2)Oc2cccc(C)c2)cc1OC | inconclusive [inhibitor, partial curve, poor fit] | 
23 | Cc1ccc(S(=O)(=O)N(C)C[C@H]2Oc3c(NC(=O)Nc4cccc5ccccc45)cccc3C(=O)N([C@@H](C)CO)C[C@@H]2C)cc1 | inconclusive [inhibitor, single point] | 
24 | O=c1c(C=NCCN2CCNCC2)c(O)n(C2CCCCC2)c(=O)n1C1CCCCC1 | inconclusive [inhibitor, single point] | 
25 | CN1C(=O)C(=Cc2coc3ccccc3c2=O)C(=O)N(C)C1=O | inconclusive [inhibitor, partial curve, poor fit] | 
26 | COc1ccc(OCC(=O)N2CCN(C3CCC(c4ccccc4)CC3)CC2)cc1 (stereo not given) | inconclusive [inhibitor, single point] | 
27 | CCOc1cc2c(cc1OCC)-n1cccc1C(c1ccc(F)cc1)NC2 (stereo not given) | inconclusive [inhibitor, single point] | 
28 | Cc1cccn2c(=O)c3cc(C(=O)N4CCC5(CC4)OCCO5)n(C)c3nc12 | inconclusive [inhibitor, full curve, poor fit] | 
29 | O=S1(=O)N(Cc2ccccc2)CCCN1Cc1cccc(Cl)c1 | inconclusive [inhibitor, single point] | 
30 | C[C@@H]1CN([C@@H](C)CO)C(=O)CCCn2nncc2CO[C@H]1CN(C)C(=O)Oc1ccc2ccccc2c1 |  | inactive: 19.1%
31 | COc1cc(NC(=O)c2ccco2)ccc1NC(=O)c1ccccc1Cl | inconclusive [inhibitor, single point] | 
32 | O=C(NCCc1ccc(F)cc1)C(=O)NCC(c1cccs1)S(=O)(=O)c1ccc(Cl)cc1 (stereo not given) | inconclusive [inhibitor, single point] | 
33 | O=C(Cn1nc(-c2ccc(Cl)cc2)ccc1=O)N1CCC2(CC1)OCCO2 | inconclusive [inhibitor, single point] | 
34 | COC(=O)C1=C(c2ccc(F)cc2OCc2ccccc2)C[C@@H]2CC[C@H]1N2C(=O)NC1CC1 | inconclusive [inhibitor, single point] | 
35 | CC(C)(OOC1(c2ccccc2)NC(=O)c2ccccc21)c1ccccc1 (stereo not given) | inconclusive [inhibitor, single point] | 
